In the RNAGym collection of RNA variant scans (doi:10.1073/pnas.2313332121):
Variants at the background level are over-represented here.

B1: TPR 5TU (parent)
chain: GGAUCUUCUCGAUCUAACAAAAAAGACAAAUCUGCCACAAAGCUUGAGAGCAUCUUCGGAUGCAGAGGCGGCAGCCUUCGGUGGCGCGAUAGCGCCAACGUUCUCAACUAUGACACGCAAAACGCGUGCUCCGUUGAAUGGAGUUUAUCAUG

Variants of: B1
Experiment: polymerase ribozyme fitness, log enrichment relative to wild type (log ratio); higher = more active; in vitro selection for triplet polymerase activity
How it was run: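 Libraries of mutants in each subunit of a heterodimeric triplet polymerase ribozyme were generated by PCR and transcribed. In triplicate, each went through one in vitro selection round: annealing with biotinylated primer, partner subunit and triplets; frozen incubation at −7 °C; gel excision of extended constructs; streptavidin-bead capture; RT-PCR. Fitness, taken from Illumina sequencing of input and output libraries, is the logarithm of a genotype's enrichment over wild-type enrichment, averaged across replicates with inverse-variance weights. The logarithm is base 2, and genotypes needed ≥10 input reads and ≥1 read per output to be kept.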

Polymerase ribozyme fitness (log ratio), -0.598:
GGAUCUUCUCGAUCUAACAAAAAAGACAAAUCUGCCACAAAGCUUGAGAGUAUCUUCGGAUGCAGAGGCGGCAGCCUUCGGUGGCGCGGUAGCGCCAACGUUCUCAACUAUGACACGCAAAACGCGUGCUCCGUUGAAUGUAGUUUAUCAUG

Polymerase ribozyme fitness (log ratio), ≤ -4.2:
GGAUCUUCUCGAUCUAACAAAAAAGACAAAUCUGCCACAAAGCUUGAGAGUAUCUUUGGAUGCAGGCGCGGCAGCCUUCGGUGGCGCGAUAGCGCCAACGUACUCAACUAUGACACGCAAAACGCGUGCUCCGUUGAAUGGAGUUUAUCAUG
GGAUCUUCUCGAUCUAACAAAAAAGACAAAUCUGCCACAAAGCUUGAGAGUUACUUCGGAUGCAGAGGCGGCAGCCUUCGGUAGCGCGAUAACGCCAACGUUCUCAACGAUGACACGCAAAACGCGUGCUCCGUUGAAUGGAGUUUAUCAUG
GGAUCUUCUCGAUCUAACAAAAAAGACAAAUCUGCCACAAAGCUUGAGAGUAUCUUCGGAUGCAGGGGCGGCAGCCUUCGGGGGCACGAUAGCACCAACGGUCUCAACUAUGACACGCAAAACGCGUGCUCGGUUGAAUGGAGUUUAUCAUG
GGAUCUUCUCGAUCUAACAAAAAAGACAAAUCUGCCACAAAGCUUGAGAGUAUCUUCGGAUGCUGAGGCGGCAGCCUUCGGUGGCGCGAUAGCGUCAACGUUCUCAACUAUGACACGCGAAACACGUGCUCCGUUGAAUGGAGUUUAUUAUG
GGAUCUUCUCGAUCUAACAAAAAAGACAAAUCUGCCACAAAGCUUGAGAGUAUCUUCGGAUGCAGAGGCGGCAGCGUUCGGUGGAGCGAUAGCGACAACGUUCUCAACUAUGACACGCAAAACGCGUGCUCUGUUGAAUGGAGCUUAUCAAG
GGAUCUUCUCGAUCUAACAAAAAAGACAAAUCUGCCACAAAGCUUGAGAGUAUGUUCGGAUGCAGAGUCGGCAGCCUACGGGGGCGCGAUAGCGCCAACGUUAUCAACUAUGACACGCAAAACGCGUGCUCCGUUGAAUCGAGUUUAUCAUG
GGAUCUUCUCGAUCUAACAAAAAAGACAAAUCUGCCACAAAGCUUGAGAGUAUCUUCGGAUGCUGGGACGGCAGCCUUCGGUGGCGUGAUAGCGCCAACGUUGUCAACUAUGACACGCAAAACGCGUGCUCCGUUGAAUGGAGUUUAUCAUG
GGAUCUUCUCGAUCUAACAAAAAAGACAAAUCUGCCACAAAGCUUGAGAGUCUCUUCGGAUGCAGAGGCGGCAGCCUUCGGUGGCGCGAUAGCGCCAACGUUAUCAACUAUGACACGCAAAACGCGUGCUCCGUUGAAGGGAGUUUAUCAUG
GGAUCUUCUCGAUCUAACAAAAAAGACAAAUCUGCCACAAAGCUUGAGAGUAUCUUCGGAUGCAGAGGCGGCAGCGUUCGGUGACGCGAUAGCGCCAACGUUCUCAACUAUGACACGCAAAACGCGUGCUCCGUUGUAUGGAGUUUAUCAAG
GGAUCUUCUCGAUCUAACAAAAAAGACAAAUCUGCCACAAAGCUUGAGAGUGUCUUUGGAUGCAGAGGCGGCAGCCUUCGGUGCCGCGAUAGCGCCAACGUUCUCAACUAUGACACCCAAAACGCGUGCUCCGUUGCAUGGAGUUUAUCGUU
GGAUCUUCUCGAUCUAACAAAAAAGACAAAUCUGCCACAAAGCUUGAGAGGAUCUUCGGAUGCAGAGGCGGCAGCCUUCGGUGGCGCGAGAGCGACUAUGUUCUCAACUAUGACACGCAAAACGCGUGCUCCGUUGAAUGGAGUUUAUCAUG
GGAUCUUCUCGAUCUAACAAAAAAGACAAAUCUGCCACAAAGCUUGAGAGUUUCUUCGGAUGCAGAGGCGGCAGCCUUCCGUGGCGCGAAAGCGCCAACGUUCUCAACUAUGACACGCAAAACGCGUGCUCCGUUGAAAGGAGUUUAUCAUG
GGAUCUUCUCGAUCUAACAAAAAAGACAAAUCUGCCACAAAGCUUGAGAGUAUCUUCGGAUGCCGAGGCGGCAGCCUUAGGUGGUGCGAUAGCGCCAACGUUCUCAACUAUGACACGCAAAACGCGUGCUCCGUUGAAUGGGGUUUAUCAUG
GGAUCUUCUCGAUCUAACAAAAAAGACAAAUCUGCCACAAAGCUUGAGAGUCUCUUCGGAUGCAGAGGCGGCAGCCUUCGGUGGCGCGAUAGCGCAAACGUUCGCGACUAUGACACGCAAAACGCCUGCUCCGUUGAAUGGAGUUUAUCAUG

Polymerase ribozyme fitness (log ratio), -0.595:
GGAUCUUCUCGAUCUAACAAAAAAGACAAAUCUGCCACAAAGCUUGAGAGUAUCUUCGGAUGCAGAGGCGGCGGCCUUCGGUGGCGCGAUAUCGCCAACGUUCUCAACUAUGACACGCAAAACGCGUGCUCCGUUGAAUGGAGUUUAUCAUG

Polymerase ribozyme fitness (log ratio), -3.01:
GGAUCUUCUCGAUCUAACAAAAAAGACAAAUCUGCCACAAAGCUUGAGAGUAUCUUCGGAUGCAGAGGCGGCAGCCUUUGGUGGCGCGAUAGCGCCAACGUUCUCAACUAUGACACGCAAAACGCGUGCUCCGUUGAAUGGAGUUUAUCAUG

Polymerase ribozyme fitness (log ratio), -2.63:
GGAUCUUCUCGAUCUAACAAAAAAGACAAAUCUGCCACAAAGCUUGAGAGUAUCUUCGGAUGCAGAGGCGGCAGCCUUCGGUGGAGCGAUAGCGCCAACGUUCUCAACUAUGACACGCAAAACGCGUGCUCCGUUGAAUGGAGUUUAUCAUG

Polymerase ribozyme fitness (log ratio), -0.8:
GGAUCUUCUCGAUCUAACAAAAAAGACAAAUCUGCCACAAAGCUUGAGAGUAUCUUCGGAUGCAGAGGCGGCAGCCUUCGGUGGUGCGAUAGCGCCAACGUUCUCAACUAUGACACGCAAAACGCGUGCUCCGUUGAAUGGAGUUUAUCAUG
